# Hit rate of the full screen: of about 110,000 compounds, about 40 (0.04%) were called active. This list was built around the results that the source calls inconclusive (neither active nor inactive); the mix of calls is not that of the screen. The call rests on the fitted dose curve; in most records, active means well fitted curve in the direction sought with a large enough effect in the signal ratio (not every such curve was filed as active); inconclusive means small, poorly fitted or top-dose-only effect, or a change in a side signal; inactive means flat fitted curve, though single readings scatter; the % refers to the signal ratio. Potencies of inconclusive entries are doubtful fits and often do not repeat.
# Assay: IkB Signaling;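 on IkBa stabilization activation: 0% = basal untreated cells and 100% = reference inhibitor full response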
# Conditions: ABC-DLBCL IkBa-CBG/CBR dual luciferase ratio (green luciferase fused to IkBa over red control in OCI-Ly3 lymphoma cells), 4 h; IkBa stabilization activation: at 57.1 µM (top of the series), scaled: untreated 0%, proteasome inhibitor 100% unless noted
# In short: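 In this assay, an IκBα–CBG68 fusion accumulates when IKK-driven degradation is blocked; native CBR normalizes for cell number. OCI-Ly3 cells were treated 4 h with compound and doxycycline, then green and red light read after Chroma-Glo addition.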
# Potency means the concentration at half of the fitted maximal effect.
SMILES,IkBa stabilization activation,Potency
CCOc1ccc(-c2cc(-c3nc(-c4cc(OC)c(OC)c(OC)c4)no3)[nH]n2)cc1,inactive: -3.18%,
COc1cc(NC(=O)c2cc3ccccn3n2)cc(OC)c1OC,inactive: 3.74%,
CCOC(=O)c1ccc(NC(=O)Nc2cc3c(cc2N2CCCC2)n(C)c(=O)n3C)cc1,inconclusive: 11.9% [signal inhibitor],
COC(=O)c1oc2ccc(Br)cc2c1-n1cccc1,inactive: 0.393%,
COC(=O)c1cc(NC(=O)c2nn(C)c3c2COc2ccccc2-3)cc(C(=O)OC)c1,inconclusive: 0.211% [signal inhibitor],
Cc1cc(N)n2ncc(-c3cccc(Br)c3)c2n1,inactive: 2.96%,
COc1ccc(S(=O)(=O)Nc2ccc3c(c2)CCCN3S(=O)(=O)c2ccc(C)cc2)cc1F,inconclusive: 5.39% [signal inhibitor],
CCOc1ccc(S(=O)(=O)Nc2cc(OC)ccc2OC)cc1,inconclusive: 11.5% [signal activator],
Cc1ccc(S(=O)(=O)NCCc2cn3ccsc3n2)cc1,inactive: -1.18%,
CCC(CC)C(=O)Nc1nc2c(s1)CC(C)CC2 (stereo not given),inconclusive: 0.966% [signal inhibitor],
O=C(COC(=O)c1ccccn1)Nc1ccccc1Cl,inactive: 0.0199%,
Cc1nc(SCc2c(F)cccc2Cl)c2c(=O)n(C)c(=O)n(C)c2n1,inactive: -0.106%,
Cc1cc2c(cc3c(SCc4nc(-c5ccccc5)oc4C)nnc(C)n32)o1,inconclusive: -0.426% [signal inhibitor],
Cc1ccc(N2CCN(S(=O)(=O)c3ccc(F)c(C(=O)Nc4ccc(Cl)cc4Cl)c3)CC2C)cc1 (stereo not given),inconclusive: -2.38% [signal inhibitor],
O=c1cc(-c2ccc(O)c(O)c2)oc2cc(O[C@@H]3O[C@@H](CO)[C@@H](O)[C@@H](O)[C@H]3O)cc(O)c12,"inactive: 0.895% [at 11.4 µM, scaled: untreated 0%, proteasome inhibitor 100%]",
CC1CCN(CCC(=O)N2CCCc3c2c(=O)oc2ccc(O)cc32)CC1,inconclusive: -1.57% [signal inhibitor],
CCn1ccc2c(OCC(=O)Nc3ccccc3C)cccc2c1=O,inconclusive: 11.9% [signal inhibitor],
Cc1ccc2c(CC(=O)NCc3ccco3)coc2c1C,inactive: 0.66%,
CCOC(=O)Cn1c(=O)oc2cc(S(=O)(=O)N3CCN(c4ccc(C(C)=O)cc4)CC3)ccc21,inconclusive: 9.16% [signal inhibitor],
CCOc1ccc(S(=O)(=O)c2cn(Cc3cc(C)ccc3C)c3ccc(OCC)cc3c2=O)cc1,inconclusive: 3.53% [signal inhibitor],

SMILES,IkBa stabilization activation,Potency
COc1cccc(-c2nc(CS(=O)(=O)CC(=O)Nc3cccc(C)c3C)c(C)o2)c1,inconclusive: 6.01% [signal inhibitor],
COc1cccc(C(=O)Nc2cccc(-c3nc4ncccc4o3)c2C)c1,inconclusive: 0.465% [signal inhibitor],
CCOc1ccc(NC(=O)c2cc(S(=O)(=O)N3CCOCC3)ccc2F)cc1,inconclusive: 2.07% [signal inhibitor],
CCCOC(=O)c1ccc(Cn2nnc3sc4c(c3c2=O)CCC(C)C4)cc1 (stereo not given),,"inconclusive: 20 µM [signal inhibitor, partial curve]"
CO[C@@H]1CC[C@@]2(C)[C@@H](CC[C@@]3(C)[C@H]2CC=C2[C@H]4CC(C)(C)[C@H](O)[C@@H](OC(C)=O)[C@]4(CO)[C@H](O)C[C@]23C)[C@@]1(C)CO (tested in a mixture with another compound),"inconclusive: -4.26% [signal activator] [at 25.6 µM, scaled: untreated 0%, proteasome inhibitor 100%]",
COc1ccccc1NC(=O)C1=C(C)Nc2nc(SCc3ccccc3)nn2C1c1cccnc1 (stereo not given),inconclusive: -1.16% [signal inhibitor],
CCOC(=O)c1cc(C#N)c(SCC(=O)c2cc(C#N)c(SC)nc2C)[nH]c1=O,inconclusive: 1.1% [signal inhibitor],
COc1ccc(-c2cn3nc(SCC(=O)Nc4ccc(C)c(Cl)c4)ccc3n2)cc1,inconclusive: 3.4% [signal inhibitor],
CN1CCc2ccccc2[C@@H]1Cc1ccccc1NC(=O)c1sc2ccccc2c1Cl,"inactive: 0.716% [at 11.4 µM, scaled: untreated 0%, proteasome inhibitor 100%]",
Cc1ccc(NC(c2ccc(Cl)cc2)c2nnc(-c3cccc(F)c3)o2)cc1C (stereo not given),inconclusive: 8.49% [signal inhibitor],
CCN(CCCNC(=O)c1cc(Nc2ccccc2OC)nc2ccccc12)c1cccc(C)c1,inconclusive: -1.66% [signal inhibitor],
COc1ccc(OC)c(CCNC(=O)c2c3c(nc4ccccc24)C(=O)N(C2CCCCC2)C3)c1,,inconclusive: 20 µM [signal inhibitor]
O=C(CSc1nc2c([nH]c3ccccc32)c(=O)n1-c1ccc(Cl)cc1)N1CCCC1,inactive: 1.38%,
O=S(=O)(NCC(Nc1ccc(Cl)cc1)c1ccccc1)c1ccccc1 (stereo not given),inconclusive: 0.454% [signal inhibitor],
COc1cc(NC(=O)Nc2ccccc2)c(OC)cc1NC(=O)CN1CCCCC1,inconclusive: 10.5% [signal inhibitor],
CN(Cc1ccccc1)Cn1ccnc1,"inactive: -0.0912% [at 11.4 µM, scaled: untreated 0%, proteasome inhibitor 100%]",
COc1ccc(-c2nc3cnc(Nc4cccc(OC)c4)nc3n(Cc3cccs3)c2=O)cc1,"inactive: -3.02% [at 11.4 µM, scaled: untreated 0%, proteasome inhibitor 100%]",
Cc1ccc(CNCc2c(C(=O)O)n(Cc3ccc(C)cc3)c3cc(C)ccc23)cc1,inconclusive: -2.1% [signal inhibitor],
Cc1cc2cc3c(cc2nc1SCC(=O)N1CCN(C(=O)c2ccco2)CC1)OCO3,inactive: 1.03%,
COc1ccc(-c2noc(CNS(=O)(=O)c3ccc(Br)cc3)n2)cc1OC,inconclusive: 1.95% [signal inhibitor],

# From PubChem BioAssay AID445 (National Center for Advancing Translational Sciences (NCATS), 2006)
